Measurements taken from PMC4336329 (PLoS ONE, 2015).
Hit rate of the full screen: of about 310,000 compounds, about 2,200 (0.71%) showed an effect of 50% or more. The effect is printed as a negative number. The list shows a part of the results.

These compounds were tested against human ether-à-go-go-related gene (hERG) potassium channel (human, UniProt Q12809) (assay: primary screen, population patch clamp on CHO cells stably expressing hERG).
human ether-à-go-go-related gene (hERG) potassium channel, sequence (Q12809 whole entry, looked up): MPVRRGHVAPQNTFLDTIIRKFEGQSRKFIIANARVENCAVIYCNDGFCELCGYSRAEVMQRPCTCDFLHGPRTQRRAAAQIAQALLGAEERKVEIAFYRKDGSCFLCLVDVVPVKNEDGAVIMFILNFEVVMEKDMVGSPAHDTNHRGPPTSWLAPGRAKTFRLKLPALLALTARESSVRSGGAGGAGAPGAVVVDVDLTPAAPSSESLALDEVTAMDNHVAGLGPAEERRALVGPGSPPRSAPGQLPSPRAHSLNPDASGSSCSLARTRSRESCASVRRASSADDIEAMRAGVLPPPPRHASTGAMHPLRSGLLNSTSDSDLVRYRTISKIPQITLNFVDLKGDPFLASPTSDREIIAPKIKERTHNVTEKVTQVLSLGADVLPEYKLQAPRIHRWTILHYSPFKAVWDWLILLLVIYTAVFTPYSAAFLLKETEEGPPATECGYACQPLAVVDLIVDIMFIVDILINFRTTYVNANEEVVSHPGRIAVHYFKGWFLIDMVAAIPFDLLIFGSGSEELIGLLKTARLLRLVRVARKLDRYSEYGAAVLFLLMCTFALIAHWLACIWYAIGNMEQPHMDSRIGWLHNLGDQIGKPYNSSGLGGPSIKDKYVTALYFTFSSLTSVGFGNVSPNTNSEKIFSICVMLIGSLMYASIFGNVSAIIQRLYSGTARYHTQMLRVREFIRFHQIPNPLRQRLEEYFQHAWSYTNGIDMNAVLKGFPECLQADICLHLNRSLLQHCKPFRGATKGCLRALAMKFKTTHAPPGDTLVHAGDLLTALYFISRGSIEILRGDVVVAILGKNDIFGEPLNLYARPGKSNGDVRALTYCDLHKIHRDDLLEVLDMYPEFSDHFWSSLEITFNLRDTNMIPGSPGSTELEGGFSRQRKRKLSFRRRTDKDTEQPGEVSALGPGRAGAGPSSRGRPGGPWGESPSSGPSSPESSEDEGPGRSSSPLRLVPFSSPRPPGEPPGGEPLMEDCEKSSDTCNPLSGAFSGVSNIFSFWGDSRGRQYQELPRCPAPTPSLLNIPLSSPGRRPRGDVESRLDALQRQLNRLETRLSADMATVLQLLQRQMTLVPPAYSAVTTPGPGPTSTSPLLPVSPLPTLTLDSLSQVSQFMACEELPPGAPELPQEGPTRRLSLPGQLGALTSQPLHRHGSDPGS

Row | SMILES | hERG current change (%, negative = inhibition) at 1uM [%]
1 | CCC1(c2ccc(F)cc2)NC(=O)NC1=O (stereo not shown) | 19.2
2 | COC(=O)C[C@H]1c2cc(C(F)(F)F)ccc2S(=O)(=O)N1C(C)(C)C | 6.16
3 | COc1cc(C)c(CN2CCC(n3nccc3NC(=O)C3CCOC3)CC2)cc1C (stereo not shown) | 6.94
4 | COc1ccc(OCCOC(=O)CNS(=O)(=O)c2ccc(SC)c([N+](=O)[O-])c2)cc1 | -15.7
5 | COc1cc2c(cc1OC)CN(C(=S)Nc1ccc(Cl)cc1)CC2 | 15
6 | CCC1(C)Cc2c(C#N)c(N)sc(=S)c2CO1 (stereo not shown) | 3.61
7 | CCCN(C(=O)COC(=O)COc1c(C)cccc1C)c1c(N)n(Cc2ccccc2)c(=O)[nH]c1=O | 5.65
8 | O=C(Cc1ccccc1)NCCc1cccc(Cl)c1 | 3.39
9 | CC1=Nc2cc(C(=O)NCC3CCCO3)ccc2Sc2ccc(C)cc21 (stereo not shown) | 13.9
10 | Cc1nn(CC(=O)NCCc2ccc(Cl)cc2)c(C)c1[N+](=O)[O-] | -0.925
11 | CC(=O)Nc1ccc(S(=O)(=O)N2CCCCC2C(=O)O)cc1 (stereo not shown) | 15.1
12 | COc1cc2[nH]c(=O)n(CCC(=O)N3CCN(Cc4ccc5c(c4)OCO5)CC3)c(=O)c2cc1OC | 12.8
13 | COc1cccc(/C=N/n2c(C)nc3ccccc3c2=O)c1O | 9.85
14 | COC(=O)CCC(=O)OC1(C)C(=O)C2=CN(C(CO)CO)C(c3ccc(OC)cc3)=CC2=C(Br)C1=O (stereo not shown) | 4.62
15 | O=C(NCc1ccccc1Cl)C1CCCN1C(=O)NC1CCCCC1 (stereo not shown) | 13.1
16 | O=C(Nc1ccc(Oc2ccccc2)nc1)C1CCCCN1Cc1cccc(OCCO)c1 (stereo not shown) | 13.2
17 | CCC(C)NC(=O)C(Cc1ccccc1)NS(=O)(=O)c1cccc2nsnc12 (stereo not shown) | 9.24
18 | Cn1nc(-c2ccc(N3CCN(CCO)CC3)c([N+](=O)[O-])c2)c2ccccc2c1=O | 17.3
19 | CN(/C=C/C(=C/C=[N+](C)c1ccccc1)OCCCS(=O)(=O)[O-])c1ccccc1 | 6.44
20 | COc1ccc(C(CC(=O)O)n2cnnn2)cc1.Cl (stereo not shown) | 5.96
21 | O=C(CCN1C(=O)S/C(=C\c2ccccc2)C1=O)Nc1ccc(O)cc1C(=O)O | 19.2
22 | CC1CCCN(C(=O)COC(=O)c2ccc3[nH]c4c(c3c2)CCCC4)C1 (stereo not shown) | 13.8

Row | SMILES | hERG current change (%, negative = inhibition) at 1uM [%]
23 | C=CCNC(=O)COc1cc(C)cc(C)c1C | 7.31
24 | C/C(CC(=O)Nc1c(C)cc(C)cc1C)=N\NC(=O)c1cnccn1 | 15
25 | Cc1ccc(N2CCN(S(=O)(=O)c3ccc4oc(=O)ccc4c3)CC2)cc1Cl | 8.8
26 | O=C(NCC1CCCO1)c1nn2c(c1Cl)NC(c1ccc(F)cc1)CC2C(F)(F)F (stereo not shown) | -2.01
27 | O=C(c1cc(S(=O)(=O)N2CCN(c3ccccc3)CC2)ccc1Cl)N1CCCC(C(F)(F)F)C1 (stereo not shown) | -3.84
28 | O=C(NCc1ccc2c(c1)OCO2)C1CC(=O)N(C2CCCC2)C1 (stereo not shown) | 10.1
29 | CC(C)(C)N(Cc1ccccc1)C(=O)COC(=O)c1ccc(Br)o1 | 10.9
30 | CCN(C(=O)CN1CCN(c2ccccc2OC)CC1)c1c(N)n(Cc2ccccc2)c(=O)[nH]c1=O | 11.9
31 | COc1ccc(NC(=O)CSc2nnnn2C2CCCC2)cc1 | 23.6
32 | CC(=O)Nc1nnc(S(=O)(=O)N2CCN(c3ccc(Cl)cc3[N+](=O)[O-])CC2)s1 | 9.84
33 | C/C(=N\NC(=O)C(N)=O)c1cccc([N+](=O)[O-])c1 | 11.8
34 | CCOC(=O)c1c(C)[nH]c(C(=O)CN2C(=O)C(=O)N(CC(C)C)C2=O)c1C | 12.8
35 | CCN(C(=O)c1cn(C)c(=O)c2cc(OC)c(OC)cc12)c1ccccc1C | -4.75
36 | O=C(Nc1ccc(S(=O)(=O)NCc2ccco2)cc1)c1ccncc1 | 8.16
37 | CC(=O)N1CCc2cc(S(=O)(=O)Nc3ccc(C)cc3C)ccc21 | 9.62
38 | COc1ccc2cc(CN(Cc3cccnc3)Cc3nnnn3Cc3ccccc3)c(=O)[nH]c2c1 | -49.3
39 | COc1cc(C(=O)OCCC(C)C)cc(OC)c1O | 1.43
40 | CC(C)Cn1c(=O)n(C)c(=O)c2[nH]cnc21 | 16.4
41 | COCCCNC(=O)C1c2ccccc2Oc2ccccc21 | 8.03
42 | Nc1[nH][nH]c(=O)c1N=Nc1cccc(Cl)c1 | 14
43 | Cc1ccc(N2CCN(C(=O)c3cc(C(=O)c4ccccc4C)c[nH]3)CC2)c(C)c1 | 5.8
44 | CN(CCC#N)C(=O)CSc1nnc(-c2c[nH]c3ccccc23)o1 | 3.48

Row | SMILES | hERG current change (%, negative = inhibition) at 1uM [%]
45 | CC1(C)CC(=O)C2=C(C1)OC(=O)CC2c1cccs1 (stereo not shown) | 5.96
46 | COc1ccccc1NC(=O)Cn1c(=O)c(N(C)C)c(N)n(C)c1=O | 13.2
47 | Cc1cc(C)cc(OCC(=O)OC/C(O)=C(\C#N)c2nc3ccccc3[nH]2)c1 | 18.7
48 | CC(C)c1ccc(/C=C/C(=O)CCC(=O)O)cc1 | 7.28
49 | CC1CC(NC(=O)CC#N)CC(C)(C)C1 (stereo not shown) | 12.6
50 | C#CCOc1ccccc1/C=N/NC(=O)c1ccccc1OCc1ccccc1 | 12.6
51 | CCc1cc(C(=O)c2ccc(OC)cc2)c(N)s1 | 11.4
52 | COCCNC(=O)c1cn(Cc2c(F)cccc2Cl)nn1 | 16.2
53 | Cc1cccc(-c2ncc(CN3CCN(C4CCCC4)C(CCO)C3)cn2)c1 (stereo not shown) | -15.1
54 | CC(NC(=O)c1cc(COc2cccc(C(F)(F)F)c2)on1)c1nccs1 (stereo not shown) | 4.87
55 | CC(NC(=O)c1ccccc1)C(=O)OCC(=O)c1c(N)n(C)c(=O)n(C)c1=O (stereo not shown) | 2.27
56 | O=c1cc(N2CCCC2)[nH]c(=O)n1-c1ccc(Cl)cc1 | 6.13
57 | Cc1noc(C)c1COC(=O)C1CCN(C(=O)c2ccc(Cl)cc2)CC1 | -11.2
58 | COCCNC(=O)c1c[nH]n2c(=O)cc(C3CCN(C(=O)OC(C)(C)C)CC3)nc12 | 9.37
59 | CC(C)c1c(O)cc(-c2ccncc2)n(-c2ccc(Cl)cc2)c1=O | -6.96
60 | CC(CC(=O)Nc1ccc(F)c([N+](=O)[O-])c1)c1ccccc1 (stereo not shown) | 8.21
61 | CN(C)CC(=O)N1c2ccccc2Sc2ccc(Cl)cc21.Cl | 4.38
62 | Cc1noc(C)c1C(=O)OCC(=O)c1cc(C)n(Cc2ccccc2Cl)c1C | -5.89
63 | Cc1ccc(OCCC(=O)OCC(=O)Nc2c(C)nn(-c3ccccc3)c2C)cc1 | -1.03
64 | Br.c1ccc(-c2nc(CSc3nnnn3-c3ccccc3)cs2)cc1 | 9.81
65 | COc1ccc(CCN2CC(C(=O)N(C)CCn3nc(C)cc3C)CCC2=O)cc1 (stereo not shown) | 14
66 | O=C(Nc1nnc(S(=O)(=O)N2CCCCCC2)s1)c1ccccc1 | 13.3

Row | SMILES | hERG current change (%, negative = inhibition) at 1uM [%]
67 | Cc1ccc(C(=O)CSc2nnc(C3CC3)n2C2CC2)s1 | 5.56
68 | COc1cccc(-n2c(Cc3cc(=O)[nH]c(=O)[nH]3)nnc2SCc2cccnc2)c1 | 7.31
69 | COc1ccc(C(=O)NCc2cn3c(C)csc3n2)cc1OC | -1.69
70 | O=C(NNC(=O)c1cc(S(=O)(=O)N2CCCCC2)ccc1Cl)c1ccccc1O | -2
71 | Cc1cc(C)cc(N2CCCC2=O)c1 | 15.7
72 | CN1CCN(S(=O)(=O)c2ccc(-c3ccccc3)cc2)CC1 | 10.1
73 | CC(C)NS(=O)(=O)c1ccc(OCC(=O)Nc2ccc3c(c2)OCO3)cc1 | -1.32
74 | Cc1ccc(NC(=O)CSc2nc3ccccc3c(=O)n2CCCC(=O)N2CCCC2)cc1 | -34.7
75 | Cc1ccc(C(O)c2ccncc2)cc1 (stereo not shown) | 13
76 | OCC[C@H]1C[C@@H](O)[C@H](O)[C@@]2(OCCc3ccccc32)O1 | 7.45
77 | Cc1ccc(S(=O)(=O)N2CCC(C(=O)N[C@@H](Cc3ccccc3)C(=O)O)CC2)cc1 | 2.7
78 | O=C(Nc1ccc(N2CCOCC2)c(Cl)c1)c1cccnc1 | 6.61
79 | CCOC(=O)c1c(/N=C/c2ccccc2O)sc2c1CCC2 | 4.95
80 | COc1ccccc1-n1c(SCc2cc(=O)oc3cc(O)ccc23)nc2ccccc2c1=O | -9.58
81 | O=C(Cc1ccc([N+](=O)[O-])cc1)NCc1ccccn1 | 12.5
82 | O=C(Cn1cnc2ccccc2c1=O)NCC(=O)N1CCC2(CC1)OCCO2 | -1.34
83 | COc1ccccc1-n1c(N)c(C(=O)NCC2CCCO2)c2nc3ccccc3nc21 (stereo not shown) | 7.54
84 | O=C(Cn1ccc([N+](=O)[O-])n1)NCc1cccs1 | 4.86
85 | CN(C)S(=O)(=O)N1CCN(S(=O)(=O)c2ccc(F)cc2)CC1 | 9.81
86 | Cl.O=C(NCc1nc2ccccc2[nH]1)c1c(F)c(F)c(F)c(F)c1F | 5.47
87 | O=C1C2CCCCC2C(=O)N1c1ccc(NC2CCCCC2)c([N+](=O)[O-])c1 (stereo not shown) | 14.8
88 | O=S(=O)(NC1CCSc2ccccc21)c1ccccc1 (stereo not shown) | 10.6
